The values below come from the RNAGym collection of RNA variant scans (doi:10.1093/nar/gkz1192).

Read counts are not given, so values of variants with three or more changes are uncertain.

B1: CPEB3 Ribozyme (parent)
chain: UAACAGGGGGCCACAGCAGAAGCGUUCACGUCGCAGCCCCUGUCAGAUUCUGGUGAAUCUGCGAAUUCUGCUGUAUAUCUC

The variants in this data set derive from B1. Kind of data set: self-cleavage, relative activity (ratio to wild type); higher = more cleavage; in vitro, sequencing. In outline:
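Barcoded CPEB3 ribozyme mutants, produced by rounds of error-prone PCR, self-cleaved while being transcribed with T7 RNA polymerase for 5 hours at 37°C and during a subsequent 15 min DNase I step before EDTA was added. Sequencing of template-switched cDNA on Illumina gave cleaved and total reads, and DNA sequencing assigned barcodes to variants. Each variant's relative activity is its cleaved/total read fraction divided by the unmutated ribozyme's fraction, averaged across three batches. A variant needed a minimum of 5 reads.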
Turning to A21U C23G A47C U60C G73A, the self-cleavage amounted to 0.05. As for C23U C38G U69C, the figure is 0.18. The same measure for A21U U25C U31C U49C: 0.15; for A21G U58C U72C: 0.24. The same measure for A21U U41C A45G U58G A65G U72C: 0.05. As to A21U G30A U58C U76A, the self-cleavage amounted to 0.07.

With G22A C59G A75C, the self-cleavage is 0.13. Regarding A21U C27U U54A U78C, the self-cleavage stood at 0.32. Take A21U U26G U41C U78C: the self-cleavage amounted to 0.07.

Turning to A21U U43C G46A G52U C62A U80A C81U, the self-cleavage turned out to be 0.03. As for A21U U41A U78C, the figure is 0.16; as for C23G C71U U72C, 0.1; as for A21U G36A G70A, 0.08.

For C23G U25C A64G U69A, the self-cleavage came out at 0.13. Consider A21U A28U U43C A56G, for which the self-cleavage was 0.17.

As to C23A U26A A35G U67C, the self-cleavage stood at 0.08. The same measure for A21U G24C A57G: 0.19. As to C23G A57G U67C, the self-cleavage amounted to 0.04. Take C23U G33C U60C: the self-cleavage is 0.12.

On to G22A G33A U74A, for which the self-cleavage was 0.09. As for C23G A35G C37U U80A, the figure is 0.07. Regarding G22A U26C U41C, the self-cleavage was 0.32. As for C23G U43C U76A, the figure is 0.07; as for C23U A28G U41C A45U U60C U74C, 0.3; as for C23U A57U U58A U66A U67C, 0.09.

Regarding A21G U72C U74C, the self-cleavage was determined as 0.14.

With G22A U41C U43A U54A U69C, the self-cleavage turned out to be 0.17.

With C23A G30A U51C, the self-cleavage was 0.04.

In the case of C23U U31G U54C, the self-cleavage stood at 0.12. The same measure for C23A G36C U54C U69C U80C: 0.03; for A21U A45G U51C: 0.16. The same measure for A21G U74A U80C C81U: 1.11. The same measure for A21U U54C U78C: 0.33; for C23G U25C A45C: 0.36; for G22U U41C U60A A64G: 0.43. In the case of G22A C29A C32G G70A A77U, the self-cleavage worked out at 0.03.

Regarding C23U U26G U48C U67A U69C, the self-cleavage came to 0.05. As for A21U C37A U60C, the figure is 0.1; as for C23U C44U U49A U60A, 0.13; as for C23A A28G G33U C38U U43A U80C, 0.09.

Consider C23U U26C A45U C79U, for which the self-cleavage came to 0.27. The same measure for G22A U25C A28U G30A U41C C44U: 0.23; for G22A U26C A57G U80C: 0.08. C23U U25C A56G: the self-cleavage stood at 0.07. The same measure for C23A U54A U80C: 0.08. As for C23A U43G U54A, the figure is 0.11; as for C23A U31A U43C U54C A65G, 0.05; as for A21G U66A U72C, 0.34. On to A21G U60G A75U, for which the self-cleavage came out at 0.45. In the case of C23U U25C A57U U60C A65U U67C, the self-cleavage was determined as 0.06.

On to A21U C27A G42A A75G, for which the self-cleavage worked out at 0.09.

With G22A U58C U76C, the self-cleavage is 0.13.

With A21U U25C G52A, the self-cleavage worked out at 0.15. For G22C A47U U69A, the self-cleavage was 0.16. C23U U26A U49C U54C: the self-cleavage is 0.31. In the case of A21U C29U A47G U51C G63A, the self-cleavage was 0.11.

With C23U U31A U41C A47G U48C U58A, the self-cleavage was 0.07. For the variant G22U C44G U58C U72G U74C, the self-cleavage is 0.03. With A21U U26A A35G, the self-cleavage amounted to 1.15. The same measure for C23U U25C G36A A45U C68A U69C: 0.1; for G22A A65G U67C: 0.22. The same measure for A21U U26C C38A U48C U66C A77G: 0.04. With A21U U43G A47G U67C U74G, the self-cleavage is 0.03.

With C23U A35G C39U, the self-cleavage came to 0.96. The same measure for G22C U43A U48C: 0.17; for A21G U60C C62U: 0.14.

For A21U C23U U26C G52A, the self-cleavage is 0.06. As for A21U A77G U78C, the figure is 0.27; as for C23A A56G U78A U80C, 0.05; as for A21U A28G G46A, 0.06. Regarding A21U A45G U58C, the self-cleavage amounted to 0.22. As for A21U C23U A65U, the figure is 0.04; as for A21U U25C U48G A65G U72C A75G, 0.02; as for C23U G55A U66C, 0.5.

Take A21U G24A U26C U49A: the self-cleavage was 0.06. With A21U U25C C39A U43C U54C C71A, the self-cleavage is 0.04. For the variant G22A U26A G55C A56U G63U U80C, the self-cleavage came out at 0.13. The same measure for A21G U69C A75U: 0.19. As for A21U U67C C71G, the figure is 0.07; as for C23G U26A U48C, 0.11; as for A21G U60C U72C, 0.26. As for C23G G33U A57G U69A, the figure is 0.02; as for C23G U25C A28C, 0.09; as for C23U C39A U48C A77G, 0.05.
